According to the BET-seq Pho4 binding data (Le et al. 2018):
Some of the results follow. These are noisy estimates, calculated here from bound and input reads.

Biological target: T1, Pho4 (S. cerevisiae) (UniProt P07270)
T1 sequence: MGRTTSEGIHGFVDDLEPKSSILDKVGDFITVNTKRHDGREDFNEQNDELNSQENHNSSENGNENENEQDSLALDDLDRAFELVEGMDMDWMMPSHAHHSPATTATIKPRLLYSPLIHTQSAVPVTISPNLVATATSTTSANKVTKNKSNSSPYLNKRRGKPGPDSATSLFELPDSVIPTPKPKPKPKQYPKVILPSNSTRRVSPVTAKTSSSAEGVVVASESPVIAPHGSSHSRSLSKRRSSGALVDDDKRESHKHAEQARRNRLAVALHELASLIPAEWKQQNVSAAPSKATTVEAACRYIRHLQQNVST
Assay: relative binding free energy (BET-seq); higher = weaker binding
Settings: reference: library average

Sequence	relative binding free energy [kcal/mol]
GTCGGCACGTGAGCGT	0.21
TGGCGCACGTGCAGTG	-0.14
ATTGGCACGTGTTAGC	-0.11
CGGGTCACGTGGTTTA	0.08
GGTATCACGTGTAGAG	0.21
GCGTGCACGTGGATTT	0.1
TTAGGCACGTGTCGTG	0.03
GAGTACACGTGGCAGG	-0.02
AAAGGCACGTGTGTGG	-0.16
ATGTACACGTGTGATG	0.04
AGCCTCACGTGGGAGG	0.14
TTTTACACGTGTACGT	0.03
TGTAACACGTGTGGAT	-0.05
TTGGCCACGTGCTTAG	-0.04
CTGCCCACGTGGTGGG	-0.01
TCTAACACGTGAGTGG	0.18
CTTAGCACGTGCGTGG	-0.12
GAGGGCACGTGATGTA	0.06
TGGTACACGTGGTAGA	0.02
AGGCGCACGTGGTTTT	-0.26
GAGTTCACGTGATGAG	0.37
AACGGCACGTGTATTG	0.02
ATGGGCACGTGTAAGT	0.02
TAAGTCACGTGTTAAA	0.13
ACTTACACGTGTTGGG	0.13
TGAATCACGTGGGCTT	-0.01

Sequence	relative binding free energy [kcal/mol]
GGTGGCACGTGTTGCC	-0.08
TGTAGCACGTGGGCCA	-0.1
TCGTGCACGTGGGCTG	-0.17
TAGGGCACGTGTAAAG	0.02
CGGATCACGTGTTTTG	0.1
AATGACACGTGGGTTT	0.07
ATGTCCACGTGGGTGC	-0.09
TAAGTCACGTGAGATG	0.1
GGTAACACGTGCTAGG	-0.05
CAAGGCACGTGAGGGT	0.09
TTAATCACGTGGATAG	-0.05
ATAGACACGTGAATGT	0.32
GTCGTCACGTGGGGTA	-0.03
GTGATCACGTGTGTCA	0.14
GGCGTCACGTGTTAGT	0.06
TGTGTCACGTGTCTGA	0.13
ATTTACACGTGCGATA	0.25
CGGGTCACGTGTAGGC	0.23
TGGGGCACGTGCATAG	-0.22
TGGGGCACGTGCGGAT	-0.18
ATGTGCACGTGTTAGC	-0.2
GAAGGCACGTGAGTAG	0.28
GTTTTCACGTGACAGG	0.42
ATGATCACGTGTTAAG	0.17
GTTGGCACGTGTACGG	-0.1
GGGGGCACGTGTGGCA	-0.06

Sequence	relative binding free energy [kcal/mol]
ATTTGCACGTGGGGAT	-0.01
CTTGCCACGTGTGGTG	-0.11
GTTGTCACGTGCGGTT	0.09
TCTTTCACGTGTGGGT	0.32
GGTCTCACGTGTATAG	0.39
TTGGGCACGTGCAAGG	-0.16
GAGCACACGTGGGTGT	-0.18
TGGTTCACGTGGACGG	0.22
TAAATCACGTGGTCGT	0.09
TTCAGCACGTGTGCTT	0.02
TTCGGCACGTGTGCTT	-0.03
GTCGTCACGTGTAGGA	0.04
GAGTACACGTGTGGAA	0.29
GGCTTCACGTGCGGGG	0.16
GTGGTCACGTGGACAT	0.13
TATGACACGTGGATTG	-0.02
TGGTACACGTGGTTGG	0
GGTATCACGTGAGCTG	0.3
AGTTTCACGTGTGTAT	0.28
AATGTCACGTGTGCGT	0.1
GGAGCCACGTGTCGGG	-0.08
ACTGGCACGTGGTTTT	-0.21
AGGGTCACGTGGAGTA	0.24
GGGGCCACGTGGGCGC	-0.11
AGTGGCACGTGGCTTT	-0.19
TTTGACACGTGCGTGT	-0.11

Sequence	relative binding free energy [kcal/mol]
GATTTCACGTGTAGAA	0.32
TTAGACACGTGTAGAG	0.12
ATAGGCACGTGATATT	-0.17
TCGGTCACGTGAGTAG	0.47
GGTTGCACGTGATTAT	0.19
TTCGTCACGTGTGGGG	0.08
GGGAGCACGTGCGGAT	-0.11
GGATACACGTGGGTAG	-0.01
AGATGCACGTGATGGT	0.13
CGTGGCACGTGATTTA	0.09
GTCATCACGTGAAGAG	0.5
GTTGTCACGTGCCTTG	0.05
TTCCGCACGTGGTTAT	0
AATGGCACGTGATCGG	-0.2
GGTTGCACGTGATCGC	0.25
GAGTGCACGTGCTAGG	0
CTGGGCACGTGATGTT	0.05
GTTAGCACGTGTGTAT	0.09
TATCTCACGTGGGTTA	0.06
AGTTTCACGTGGTGGC	0.18
ATTAGCACGTGAAGGC	0.34
GGGTACACGTGGAATT	0.12
GTGGTCACGTGGGAAA	0.13
AAATCCACGTGAGGGG	0.24
TGCTTCACGTGAATTG	0.42
TATAACACGTGTCGGT	0.03

Sequence	relative binding free energy [kcal/mol]
TTTAGCACGTGGGAAG	-0.02
TCGAGCACGTGTGTAG	-0.13
TGTGGCACGTGCGGAA	-0.18
GTTGTCACGTGCAGGA	0.13
CTGGGCACGTGAGGCG	-0.08
AGGGGCACGTGGCCTG	-0.33
ATATGCACGTGCGGGT	-0.03
TCTGTCACGTGATTAG	0.24
TGGAACACGTGCTTGT	0
AGTGGCACGTGCGAAT	-0.01
ATTAGCACGTGGCATG	-0.19
TGGACCACGTGAGGTT	0.19
ATTGTCACGTGGTATG	0
AATTGCACGTGGTGCA	-0.15
GTATGCACGTGTGAAT	-0.02
GTGAGCACGTGAGTAG	0.22
AGACACACGTGGGGGT	-0.08
GGGTGCACGTGTCTCG	-0.01
TGGTCCACGTGATGGT	0.18
ATAAGCACGTGTTGGC	-0.04
TTAGTCACGTGGAGAA	0.12
TGGGGCACGTGAAGCG	0.03
GAAGGCACGTGTGGTG	-0.07
GGTGACACGTGAGGAT	0.21
TTAAACACGTGGGGAG	0
ATTTACACGTGAGTTT	0.26

Sequence	relative binding free energy [kcal/mol]
AAGGTCACGTGAAGTA	0.28
GGGTTCACGTGTGGGA	0.37
TTGGACACGTGTTGTC	-0.02
ATCAACACGTGGGGGA	-0.07
GTTGGCACGTGGGGTA	-0.24
TTTTTCACGTGTTCGG	0.31
TTAGGCACGTGGCGCT	-0.04
GATACCACGTGTTTGT	-0.04
CCGGTCACGTGGGTGC	-0.14
TTAGTCACGTGTTGGT	0.16
GATAGCACGTGAGTAT	0.3
TGGGTCACGTGCCGTC	0.1
CAGGGCACGTGAAGTG	0.31
GGTATCACGTGTGATA	0.31
GTTAACACGTGAGTGA	0.18
GCTGGCACGTGGATTA	0.13
TTTGGCACGTGGGCGC	-0.4
AGTGTCACGTGTCGTG	0.07
GGCTCCACGTGGGTTT	-0.01
GTTGGCACGTGCGGAC	-0.05
AGTATCACGTGATAGG	0.11
TATTACACGTGTAGGG	-0.04
TAGAGCACGTGACGGT	0
GTAGTCACGTGGTCTT	0.06
TGGGACACGTGATTTG	0.17
AGTGACACGTGTTTGG	-0.04

Sequence	relative binding free energy [kcal/mol]
AGTGTCACGTGTGGGC	0.12
TTAATCACGTGTGTGA	0.09
GGGGACACGTGGTATC	-0.02
TGCTTCACGTGAAGGT	0.21
TGGACCACGTGGCGTG	-0.05
GTATGCACGTGGTGCG	0.03
ACTTTCACGTGTTTTT	0.32
TCGAGCACGTGGTTAG	-0.19
GTGTACACGTGGTGGT	-0.06
TTGGGCACGTGAGCAT	-0.05
TTCGGCACGTGTGGAA	0.01
TGGACCACGTGGGTGT	-0.17
GGGGGCACGTGTATTT	0.01
TGTAACACGTGTGAAA	0.1
AGGGGCACGTGGGGAG	-0.14
CGAAGCACGTGGGGTT	-0.1
ATTCGCACGTGTTTTA	-0.03
GGTGTCACGTGAATCG	0.35
GGTGGCACGTGAGAGT	0.1
TTGATCACGTGGCTTG	0.09
GCTGACACGTGGGTAG	-0.08
GATGCCACGTGGGTAG	-0.13
GACAACACGTGGTGTG	0.07
CTAATCACGTGTTGTG	0.06
TCTCGCACGTGCGTGG	0
TTTAGCACGTGGAGTC	-0.03

Sequence	relative binding free energy [kcal/mol]
CGTTTCACGTGTTTCT	0.41
AGGGCCACGTGGGTCA	-0.22
TAGGTCACGTGGTTCG	0.22
TTAAGCACGTGTGAGT	-0.04
TATGTCACGTGGGTGA	-0.14
GTTGTCACGTGGGTCA	0.07
GGGGTCACGTGTTCGA	0.32
AAATTCACGTGGGGGT	0.08
TGTGGCACGTGTGACA	-0.17
TATTACACGTGGATAG	0.11
GGGTCCACGTGTGGCT	0.11
GATTGCACGTGAGTAG	0.18
ATAGCCACGTGATGGG	-0.03
GTGGGCACGTGGTTTC	0
ATATACACGTGGCGGT	-0.11
CGTGTCACGTGGGGTT	-0.01
TGTCTCACGTGGTATG	0.16
GGTATCACGTGGGCAA	0
ATGGTCACGTGGCTAG	0.02
ATGACCACGTGTTGTT	0
TGTATCACGTGGATAA	0.06
ATCTGCACGTGGGGCT	-0.23
GGCTGCACGTGGTGTG	-0.07
TTAGGCACGTGCAGGT	-0.12
GGAGACACGTGTTATA	0.13
GTATACACGTGGTAGC	0.08

Sequence	relative binding free energy [kcal/mol]
GTTTACACGTGGGTTG	0.03
TTGCGCACGTGAAAGG	0.3
AAGTCCACGTGGGTGG	-0.1
CGGGTCACGTGTAAGA	0.13
ATAATCACGTGTGGGC	0.3
GTACGCACGTGAATTG	0.21
TAAGACACGTGTTGTA	0.09
GGTGGCACGTGGACTT	-0.12
GTGAGCACGTGGTCGT	-0.12
TTGATCACGTGTCAGC	0.36
GGGTGCACGTGACGCG	0.05
AGATCCACGTGAGTGT	0.25
AAGTCCACGTGGTGAG	-0.01
ATTGTCACGTGGGTTC	0.01
CGGTGCACGTGATGAG	0.15
GTGGACACGTGATTTT	0.21
TGGACCACGTGGGGTA	-0.21
TACAGCACGTGTTGCT	0.09
ATGCGCACGTGAGGGC	0.08
ATTAGCACGTGAGGAA	0.16
AGAGGCACGTGTTGGG	-0.02
TTCGGCACGTGTGAAT	0.09
